From the supplement of paper PMC12217912
The other results are listed elsewhere or left out. Sequences were assembled here from the parent chain. Inactive controls read about 0.05.

B1: TEV protease; numbered along this chain (parent)
chain: MGESLFKGPRDYNPISSSICHLTNESDGHTTSLYGIGFGPFIITNKHLFRRNNGTLVVQSLHGVFKVKDTTTLQQHLVDGRDMIIIRMPKDFPPFPQKLKFREPQREERICLVTTNFQTKSMSSMVSDTSCTFPSGDGIFWKHWIQTKDGQCGSPLVSTRDGFIVGIHSASNFTNTNNYFTSVPKNFMELLTNQEAQQWVSGWRLNADSVLWGGHKVFMVKPEEPFQPVKEATQL

Variants of: B1
Assay: raw area under fraction-flipped curve 0-4 h after induction (AUC4h, not background-subtracted), DNA-recorder readout of cleavage of the substrate (dimensionless); higher = more cleavage of the substrate by the protease variant
Conditions: temperature: 34 °C; time window: 0-4 h after rhamnose induction
Protocol: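 In vivo DNA recorder in E. coli TOP10(DE3) ΔrhaA at 34 °C. Each TEVp single-site mutant (parent TEVp 0) is paired with a single-site variant of the 7-mer TEVs (canonical ENLYFQ|S). The substrate sits between flexible linkers in a Bxb1-sfGFP-TEVs-SsrA fusion, so cleavage stabilises Bxb1 and speeds flipping of a recombination array, read by NGS. The value is the raw area under the fraction-flipped curve over 0-4 h after rhamnose induction (AUC4h), with ≥20 reads per time point. It is not background-subtracted; inactive controls average about 0.047.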
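Note: Bxb1 expression induced with 0.2% (w/v) L-rhamnose at OD600 near 0.5, cultures sampled hourly, flipped fraction per protease–substrate barcode pair counted by paired-end Illumina sequencing.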

Variant	area with substrate ENAYFQS	area with substrate ENCYFQS	area with substrate ENDYFQS	area with substrate ENEYFQS	area with substrate ENFYFQS	area with substrate ENGYFQS	area with substrate ENHYFQS	area with substrate ENIYFQS	area with substrate ENKYFQS	area with substrate ENNYFQS	area with substrate ENPYFQS	area with substrate ENQYFQS	area with substrate ENRYFQS	area with substrate ENSYFQS	area with substrate ENTYFQS	area with substrate ENWYFQS	area with substrate ENVYFQS	area with substrate ENMYFQS	area with substrate ENYYFQS
A207D	0.0619	0.0637	0.0681	0.065	0.0567	0.0582	0.0618	0.107	0.0706	0.0677	0.0637	0.0604	0.0524	0.0677	0.0663	0.0515			
S209L	0.0644	0.0616	0.049		0.0555	0.0525	0.0696					0.0646							
Q227G	0.0674	0.0579	0.0594				0.0706			0.0376	0.0592	0.0565	0.067	0.0702			0.0881		
K221M	0.059	0.0639	0.0528	0.068	0.052	0.0672	0.0556	0.0722		0.0697	0.0416	0.0605			0.0536	0.0438		0.0434	
K221H	0.0709	0.0704	0.0604	0.0657	0.0501		0.0576		0.0395	0.0548	0.0605	0.0553		0.0586	0.0615	0.0594	0.071		
K221C	0.0602	0.0738	0.0601		0.079	0.0654	0.0657	0.093	0.0675		0.0603	0.0624	0.0566	0.06	0.07		0.075	0.0629	
N206E	0.0507	0.0678	0.0718	0.0562	0.0799	0.0509	0.0576	0.0874	0.0736	0.0861	0.0515	0.0652	0.0746	0.11	0.0816	0.0414	0.0929	0.0838	0.0658
N206I	0.0582		0.071	0.0611		0.0524	0.0699	0.0865	0.0503	0.0541	0.0551	0.0579		0.0773	0.0528	0.0344	0.0828		
Q194M	0.0659	0.0744		0.0656		0.068	0.0602	0.0956	0.069	0.0679		0.0651	0.0448	0.032	0.0413		0.0669		0.0619
Q194V	0.0542	0.0632	0.0553			0.063				0.0836	0.0463			0.0664	0.0728	0.0543	0.0724		0.0747
Q194K	0.0456	0.08	0.0608			0.0674			0.0673	0.0752	0.0451	0.0691	0.0578						0.0657
A196Y	0.0793			0.0727			0.0642		0.0573	0.0843		0.0638		0.0542	0.074	0.0389	0.086		
A196R	0.0624			0.0728	0.0563														
A196T	0.0626	0.0642	0.0642		0.0565				0.0634	0.0687	0.0628	0.0516	0.0624	0.0887	0.0672	0.0522	0.108	0.0823	
L191V	0.0544	0.0698	0.0614		0.072	0.0695	0.052	0.115	0.068	0.0531	0.0681	0.0641	0.0569	0.067	0.0588		0.046	0.0643	0.0543
V210T	0.0528		0.0583	0.0867	0.058			0.0844			0.061	0.057	0.0655	0.0543	0.0681	0.0328	0.0611		0.0544
V210F	0.0505	0.07			0.06	0.06	0.0404	0.117	0.0664			0.0603	0.035		0.0503		0.0687	0.0545	
G202E	0.0844		0.0632	0.0782			0.0698			0.0621		0.0679	0.0798				0.0729	0.0566	0.0662
W199V	0.0541	0.0735		0.0624		0.0665				0.0693		0.0767	0.0528	0.062		0.0489	0.0501		0.0411
W199I	0.0622		0.0441		0.0789			0.0437			0.0619		0.0722		0.0562				
V217R	0.0961	0.0691						0.0577	0.0551				0.0595	0.0896	0.0552			0.0809	0.0768
V217G	0.0576		0.0534					0.0723	0.0537			0.0451	0.0572	0.0558		0.0138		0.0521	
R204A	0.0744	0.0326	0.0357	0.0671	0.0681	0.0627	0.0467			0.0727	0.0757	0.0658	0.081	0.079		0.0611	0.094	0.0851	0.0756
Q197S	0.0907		0.0531	0.0607	0.0621					0.0753	0.0659			0.0695				0.0722	0.0597
Q197N	0.0679		0.0726	0.0627	0.0701	0.0677					0.0588						0.0717		
Q197P	0.0603		0.0654		0.0462					0.0614	0.0538	0.0683		0.0369		0.0512			
P222R	0.0672		0.0601	0.0666	0.0566		0.0753				0.069	0.0679	0.0666	0.0552	0.0558		0.0581		
P222N	0.0618		0.0588	0.0594	0.05	0.063			0.0578		0.0652	0.0546	0.0628	0.0571	0.0599		0.075	0.0928	0.0533
N193E	0.0646	0.0669		0.0664			0.0785			0.0665	0.0509	0.0972	0.051	0.0821	0.0584	0.0536			
